This is one part of the list.

This passage reports binding signal results from paper PMC12136788.

T1: UNK ZnF1-3 (human, UniProt Q9C0B0 31-174)
T1 sequence: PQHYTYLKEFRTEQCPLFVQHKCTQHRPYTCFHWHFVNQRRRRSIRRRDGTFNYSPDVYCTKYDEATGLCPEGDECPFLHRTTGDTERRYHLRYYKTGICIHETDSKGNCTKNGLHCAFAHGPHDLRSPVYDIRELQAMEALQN

B1: 81124230_81124350_1936_CDS_ENSG00000152784_ENST00000415738|human|control|control (ssRNA)
RNA: GGGAGUUCUACAGUCCGACGAUCGGCGUACAGGAAGGGGCUCUGCUUAGGCAGGCCGCCGCCGCCGCUCGGCAGGGACCCGCAACCUCCGUUCAGGUCCGCGGCCCCCUGGAGCUUCACCGCUAGAGGGUCCGCGGCGGCGGGCAACAGAGGAUUGAGCAUCA
B2: chr6:52679276:52679277:+_ENSMUSG00000004535_ENSMUST00000080723|mus_hu|motif|central (ssRNA)
RNA: GGGAGUUCUACAGUCCGACGAUCGUAACAGAACUGAUAAAAUUCUCCAUCAUCAUUUGGAAGGUAAUAUCCUUGGAAUGCGGGUACACAAUUGACUGUUGAUCCUUCCACAUAAUGUUCAGGCAUAGGGGACCAUAAAAACGUCAACAGAGGAUUGAGCAUCA
B3: 34378438_34378558_645_CDS_ENSG00000134779_ENST00000590842|human|control|control (ssRNA)
RNA: GGGAGUUCUACAGUCCGACGAUCGGUGAAGGCAUAUUGCCACUGGGGCAGGCCCAGGUGGGUGAUGAGCAGGCGGUAAUAGGCAGUAAAGGUGUCUGUGAGAAAAUGCCAGUAUAACGCUCUGUCCAGGAACCAGAUCUCAGUCAACAGAGGAUUGAGCAUCA
B4: chr2:48026839:48026840:+_ENSG00000116062_ENST00000540021|hu_hu|hu_hu_hu_mus_False|1_78 (ssRNA)
RNA: GGGAGUUCUACAGUCCGACGAUCAUAGUGAGCCACUAGCGUCCUAAAUCUGGAACAAUGGCGAUCAUCCGAAAACUGGCCGAUGAAAAACUUGCCCAGUGAAGUGUCCACAAAGCAAACACCAUACACACGAGUGUGGCCAGACAACAGAGGAUUGAGCAUCA
B5: chr1:39494564:39494565:+_ENSG00000168653_ENST00000372967|hu_hu|hu_hu_hu_mus_True|18_68 (ssRNA)
RNA: GGGAGUUCUACAGUCCGACGAUCAUGCAUUCGCCUCAUCGUUUUGUACCGAAGCAAGCACUCUUCGAAAUCAUCAUACUCUAUCUUGCACUCCUUUUUCGCCCGGGUCCCACCGAUUCCAUGUGCACACUCUAUCCACUCUUUCAACAGAGGAUUGAGCAUCA
B6: 87970796_87970916_7552_CDS_ENSG00000188994_ENST00000369577|human|control|control (ssRNA)
RNA: GGGAGUUCUACAGUCCGACGAUCUUCUGACUGGCAGAGGUUAUCUUCCUGAAAAUCAUUACUUACAUUUGAAGAAGUAUUAGCUUGGGUCUCUACACUUGUGCUAUCUUCAUUUAUUAAUUUUGUAAUAAACAAUUCUGUUAGCAACAGAGGAUUGAGCAUCA
B7: chr11:86029109:86029110:-_ENSMUSG00000018068_ENSMUST00000018212|mus_hu|FALSE|FALSE (ssRNA)
RNA: GGGAGUUCUACAGUCCGACGAUCGUGAACAAGCUUAGCAAUGUUGGGAUCUGCAAUGUACAUUUGGUGCAAGAGACAACAGAUAAGGCACUGAACUUCUCGAAGGUUACAGAGCAAAUUGUCUUCUCCUUCCUCCAUUCCCUUCAACAGAGGAUUGAGCAUCA
B8: chrX:148369326:148369327:+_ENSMUSG00000025261_ENSMUST00000112622|mus_hu|FALSE|FALSE (ssRNA)
RNA: GGGAGUUCUACAGUCCGACGAUCCUUGUCUCGCAUUGAAUCAUUAGCUGUGCACAUCAACACAUUCCAAGCACAAAUUAAGAAAUGCAAACAGAACAAAAAAAUAUAUAUAUAUAUAAUUUUUUCCCCUAUCCAAAGGUUUCACAACAGAGGAUUGAGCAUCA
B9: chr10:122431106:122431107:-_ENSMUSG00000034602_ENSMUST00000073792|mus_mus|motif|central (ssRNA)
RNA: GGGAGUUCUACAGUCCGACGAUCAAUAUUUUCAAAAUGUUGCCACUCUUACUAUUUUGAUACUUUAUCAGUGAUAGUCCGGUUCUUUAAUUCACAAGUGAGUAUAUCAAAAUAUAAAAAAUACACGGCUUGAGUCAUUUUUUUCAACAGAGGAUUGAGCAUCA
B10: 96118393_96119580_343_3pUTR_ENSMUSG00000033237_ENSMUST00000096250|mouse|control|control (ssRNA)
RNA: GGGAGUUCUACAGUCCGACGAUCAAGUAAUACUGUUUUAAAGCAAAGGCAGCGUUGGAACAACUUCUGGGAAAGUUGAACUCUUCAACAAUUUCUCCCCACUGAUUCUUCUCAGAAACCUUCGCGAAUCCGCCUAAAGUAGUGCAACAGAGGAUUGAGCAUCA
B11: chr15:5129413:5129414:+_ENSMUSG00000050697_ENSMUST00000051186|mus_hu|motif|central (ssRNA)
RNA: GGGAGUUCUACAGUCCGACGAUCAAAACAAAGAGGGAGGGAUAUGGAAGAAGUUAUCCAGACUGUUACUACUGCUGGAAGAUACGGGCUAUUUAUGAAGUUAAGGAGCCCAGAAAACAAAAUCACCUAUAAAGGUCUUGGGAACAACAGAGGAUUGAGCAUCA
B12: chr11:51926749:51926750:+_ENSMUSG00000020349_ENSMUST00000020608|perfect_dup|motif|central (ssRNA)
RNA: GGGAGUUCUACAGUCCGACGAUCGUCCACAUAGUCUCCCAUAAACAGGUAAUUUGUAUCUGGUGAUUUACCACCAAUUCGGAAGAGUUCCAUGAGAUCAUGAAAUUGCCCAUGUACAUCUCCACACACAGUGACUGGACAUCGCAACAGAGGAUUGAGCAUCA
B13: chr1:109605286:109605287:-_ENSG00000197780_ENST00000461096|hu_mus|motif|central (ssRNA)
RNA: GGGAGUUCUACAGUCCGACGAUCAAGUUUCAGAGUAACAUUCAGUAACCUCUUUAAAUGCAAUUAUCCUUAUUAUAAGCGGAGCAGAAUAAUAAUUUAAUACCGUAAGUGAACUACACACAAAGCCUGAACCGCGAAAAUGGUCAACAGAGGAUUGAGCAUCA
B14: chr5:128448638:128448639:+_ENSG00000066583_ENST00000173527|hu_mus|hu_hu_hu_mus_False|8_78 (ssRNA)
RNA: GGGAGUUCUACAGUCCGACGAUCGGCACUCGCCUUAAUUAGGUUCUGAAUUUCCUUGAAUUUUGGAUGGUCUUUGUCAGCCACCAGCUGUAGGAGGACAGCCUCACUAGUGGUCACGAUGAUCCCAGUUCGAGCGAGACGCUCCAACAGAGGAUUGAGCAUCA
B15: chr2:27656205:27656206:+_ENSG00000115216_ENST00000379852|hu_hu|motif|central (ssRNA)
RNA: GGGAGUUCUACAGUCCGACGAUCACUGAUGUCAGGCCAGGAGCUGAAGAUGAGGAUUCUACCUUUGGGUCUGAGCCACUGCGGAGUACUGUCUGGGACUCCCCCUCCGACAUGCUGGAAGGAACACUCAGGCCUCCCGACUCCCAACAGAGGAUUGAGCAUCA
B16: chr14:78183846:78183847:+_ENSG00000119705_ENST00000557342|hu_hu|hu_hu_hu_mus_False|18_48 (ssRNA)
RNA: GGGAGUUCUACAGUCCGACGAUCUCUCAGAAAUCUUUCUUCAUCAGAUGUUUGAGCUCCGUGCAAAGCCUUUGCUCUUUGAGCUUGAACCUGGACCUAUGGGAGGGAAAGCACUGUAUUUUCCUGUAAUUUUUUUUUUAAAGACAACAGAGGAUUGAGCAUCA
B17: chr11:120326911:120326912:-_ENSMUSG00000057594_ENSMUST00000124970|mus_hu|FALSE|FALSE (ssRNA)
RNA: GGGAGUUCUACAGUCCGACGAUCACUUUGGGUUAUUCUGCCCCUGUGAGAAGAAACUAUUGGCAGCAAAGCCAUACUGCCCUCUGCCACCUCUCCCCAGCUCAGGCCAGCUGCGCCUCUGCCGUGCAGUCAAUCGUUGGCUCUCAACAGAGGAUUGAGCAUCA
B18: chr4:142145789:142145790:+_ENSG00000109445_ENST00000262990|hu_mus|FALSE|FALSE (ssRNA)
RNA: GGGAGUUCUACAGUCCGACGAUCACACUGUGCACAAAUUGGUAACUUCUGAACAGAAUUACAAAAAUAGCAAAAUGCUCUAUUCUUCUGCCGCCUCUGACAUUUGUCGCAUUCCAUUGAAGCAUUGCAUGGGUGUUUGGCUAGCAACAGAGGAUUGAGCAUCA
B19: chr9:98468509:98468510:+_ENSMUSG00000032458_ENSMUST00000035033|mus_mus|motif|central (ssRNA)
RNA: GGGAGUUCUACAGUCCGACGAUCAAACGUCUUCACCAGUGUCUGAGUUUCAUGAUUCCAAACACACACACUGCCAUUGUAAAGACGGGCCAACAUCCAUGGCUCUGUGGGAUGCAAAUCCACGCUCUUAACUCGGUCAGACCUCAACAGAGGAUUGAGCAUCA
B20: chr4:17845017:17845018:+_ENSG00000109805_ENST00000514176|hu_mus|hu_hu_hu_mus_False|8_98 (ssRNA)
RNA: GGGAGUUCUACAGUCCGACGAUCGCUCUCUUAACUUGAUCUUCAUUUAAGGAACUCUGCAAGGUUAAGUUUACUUUUCUGUAGCGCAGCUGUUUUGGCUCGUCUGGGUAAUCUCAUCUUCAUUUCUAUUCUGGUUCCAUGAUCCAACAGAGGAUUGAGCAUCA
B21: 53326365_53327111_1920_CDS_ENSG00000073712_ENST00000341590|human|control|control (ssRNA)
RNA: GGGAGUUCUACAGUCCGACGAUCGGCAUCCAUCCGAAUCAGUCUGUUGUAUGCAAUUCCAAUAAGUUCUUCUUUUUUGCCCCCUUGGAACCUUGCAAUGAAGUGAGUGAUGCCAAAUUCAGGUAGUGACUGCCAAGCUUGAAUCAACAGAGGAUUGAGCAUCA
B22: chr8:95500983:95500984:-_ENSG00000164944_ENST00000437199|hu_hu|hu_hu_hu_mus_True|18_78 (ssRNA)
RNA: GGGAGUUCUACAGUCCGACGAUCAGAACACAUCUAUCGAGUAAAGGACCGUACAUGGACGACCUCUCCACUGCCUCCACUAACAAACUUUCCUCUCGAGCCUCCACUGCCGCUAUUUUGCACUAGCCAGGACGGUCCCAGGCCCAACAGAGGAUUGAGCAUCA

In this experiment the target is T1, UNK ZnF1-3. Put plainly: nsRBNS (natural sequence RNA bind-n-seq); RBNS binding buffer (assumed for nsRBNS): 25 mM Tris pH 7.5, 150 mM KCl, 3 mM MgCl2, 0.01% Triton X-100, 500 ug/ml BSA, 20 U/ml SUPERase-In, 4 C; UNK is unkempt and MSI1 is Musashi-1; names of the RNAs are library labels; protein concentration not given here; high values mean tight binding.
Consider B1, for which the binding signal was determined as 0.392 enrichment R.

As to B2, the binding signal came out at 1.19 enrichment R.

Molecule B3 registered a binding signal of 1.33 enrichment R.

B4: the binding signal came out at 1.23 enrichment R.

B5 showed a binding signal of 0.681 enrichment R.

B6 gave a binding signal of 0.862 enrichment R.

The molecule B7 registered a binding signal of 1.21 enrichment R.

As for B8, the binding signal was found to be 0.406 enrichment R.

Molecule B9 gave a binding signal of 0.796 enrichment R.

In turn, B10 yielded a binding signal of 0.883 enrichment R.

As for B11, the binding signal was found to be 1.9 enrichment R.

Turning to B12, the binding signal amounted to 1.08 enrichment R.

B13 gave a binding signal of 1.15 enrichment R.

B14 displayed a binding signal of 0.694 enrichment R.

As to B15, the binding signal is 0.704 enrichment R.

B16: the binding signal is 1.65 enrichment R.

The molecule B17 came in with a binding signal of 0.595 enrichment R.

Consider B18, for which the binding signal was 1.15 enrichment R.

Molecule B19 showed a binding signal of 0.561 enrichment R.

On to B20, for which the binding signal stood at 0.405 enrichment R.

As for B21, the binding signal worked out at 1.07 enrichment R.

For B22, the binding signal amounted to 1.62 enrichment R.
